The other results are listed elsewhere or left out. At the low end of the ranking, values are background and their order means little.

For the assay, the system named is MYC (p64) + MAX (p21), in MYC:MAX. Put plainly: protein-binding microarray (anti-MAX antibody). Particulars: PBM: 15 mM Tris-HCl pH 7.5, 100 mM KCl, 0.075% NP40, 7.5 mM beta-mercaptoethanol, 375 ng/ul BSA, 8 ng/ul poly(dA-dT):(dA-dT), 550 ng complex, 60 min, room …; high values mean tight binding; double strand, one strand shown; sequences stand for … in CCGGC…TTAATAGCTAAGATTACTATATCGACG
On to TGAGCATCAGTA, for which the binding signal (log2 normalized fluorescence) stood at 0.128.

As for TGATTTTACGTA, the binding signal (log2 normalized fluorescence) was -0.056.

As for TGATTTTCTGTA, the binding signal (log2 normalized fluorescence) was -0.216.

Regarding TGATCAATGGTA, the binding signal (log2 normalized fluorescence) was -0.0293.

On to TGAACCCTTGTA, for which the binding signal (log2 normalized fluorescence) worked out at 0.283.

Turning to ACCCAATAAGAA, the binding signal (log2 normalized fluorescence) was determined as 0.0103.

For the sequence TGATACATAGTA, the binding signal (log2 normalized fluorescence) was -0.0443.

As to TGAAAGACCGTA, the binding signal (log2 normalized fluorescence) came to 0.0326.

For TGACGCCTGGTA, the binding signal (log2 normalized fluorescence) was 0.306.

As to TGAACTTACGTA, the binding signal (log2 normalized fluorescence) worked out at 0.181.

Consider TGATGTACCGTA, for which the binding signal (log2 normalized fluorescence) was 0.119.

Consider TGACAAAGTGTA, for which the binding signal (log2 normalized fluorescence) was determined as 0.184.

With TGAATCTACGTA, the binding signal (log2 normalized fluorescence) was -0.0348.

Consider TGATGGTCAGTA, for which the binding signal (log2 normalized fluorescence) came out at 0.296.

Take TGGCGCGTGGTA: the binding signal (log2 normalized fluorescence) worked out at 0.452.

TGAATCTTTGTA: the binding signal (log2 normalized fluorescence) was -0.0439.

For the sequence TGAGGAGTGGTA, the binding signal (log2 normalized fluorescence) amounted to 0.178.

Consider TGATCTGCCGTA, for which the binding signal (log2 normalized fluorescence) was -0.178.

Turning to TCACACGATGTA, the binding signal (log2 normalized fluorescence) came to 0.603.

On to TGAGTGGACGTA, for which the binding signal (log2 normalized fluorescence) came out at 0.0641.

Regarding TGATACTCAGTA, the binding signal (log2 normalized fluorescence) was found to be 0.0572.

TGAGTCTTCGTA: the binding signal (log2 normalized fluorescence) is -0.211.

For the sequence TGATCAATCGTA, the binding signal (log2 normalized fluorescence) is -0.024.

Consider TGAACCTAGGTA, for which the binding signal (log2 normalized fluorescence) was 0.185.

TGAACACGGGTA: the binding signal (log2 normalized fluorescence) came to 0.444.

For TAAAACGTTGTA, the binding signal (log2 normalized fluorescence) turned out to be 0.589.

In the case of TGATACTACGTA, the binding signal (log2 normalized fluorescence) worked out at 0.0703.

Turning to TGAACCTCAGTA, the binding signal (log2 normalized fluorescence) was 0.265.

With TGACATTAGGTA, the binding signal (log2 normalized fluorescence) was 0.373.

Regarding TGATGCACTGTA, the binding signal (log2 normalized fluorescence) worked out at 0.122.

With TGATCACATGTA, the binding signal (log2 normalized fluorescence) is 0.704.

With TGAAATTAAGTA, the binding signal (log2 normalized fluorescence) was -0.0181.

For TGTCCCCTGGTA, the binding signal (log2 normalized fluorescence) is -0.00889.

In the case of TGATCAAGTGTA, the binding signal (log2 normalized fluorescence) was determined as 0.195.

TGAGCTAGGGTA: the binding signal (log2 normalized fluorescence) was -0.194.

For TGATTAGGAGTA, the binding signal (log2 normalized fluorescence) is -0.103.

On to TTAATCGTGGTA, for which the binding signal (log2 normalized fluorescence) is 0.374.

With TGACACGTGGCG, the binding signal (log2 normalized fluorescence) amounted to 0.519.

For TGAGATCGCGTA, the binding signal (log2 normalized fluorescence) turned out to be 0.202.

For TGAACGAACGTA, the binding signal (log2 normalized fluorescence) is 0.0585.

In the case of TGATGATCGGTA, the binding signal (log2 normalized fluorescence) was -0.0807.

On to TGAACAACAGTA, for which the binding signal (log2 normalized fluorescence) came to 0.103.

For the sequence TGACGGAAAGTA, the binding signal (log2 normalized fluorescence) is -0.011.

Turning to TGACGGCACGTA, the binding signal (log2 normalized fluorescence) was found to be 0.245.

On to TGACATGCGGCA, for which the binding signal (log2 normalized fluorescence) amounted to 0.628.

As for TGATCCGGAGTA, the binding signal (log2 normalized fluorescence) was -0.164.

Regarding TGACGAACGGTA, the binding signal (log2 normalized fluorescence) turned out to be 0.134.

Turning to TGACCACCCGTA, the binding signal (log2 normalized fluorescence) stood at 0.348.

On to TGATTCTGTGTA, for which the binding signal (log2 normalized fluorescence) is -0.00865.

Turning to TGAGTTCTAGTA, the binding signal (log2 normalized fluorescence) is -0.121.

Consider TGATATTTTGTA, for which the binding signal (log2 normalized fluorescence) is -0.402.

For TGAAAGGGCGTA, the binding signal (log2 normalized fluorescence) was -0.0196.

TGACAGCTCGTA: the binding signal (log2 normalized fluorescence) came to 0.116.

For the sequence TGAGGGAAAGTA, the binding signal (log2 normalized fluorescence) was -0.0826.

For TGACGTCGCGTA, the binding signal (log2 normalized fluorescence) is 0.22.

As for TGAACAGCAGTA, the binding signal (log2 normalized fluorescence) stood at 0.302.

For the sequence TGAGCACATGTA, the binding signal (log2 normalized fluorescence) stood at 0.511.

As for TGACCGTGTGTA, the binding signal (log2 normalized fluorescence) stood at 0.341.

Turning to TGACCCATAGTA, the binding signal (log2 normalized fluorescence) is -0.0373.

For the sequence TGAACGTATGTA, the binding signal (log2 normalized fluorescence) turned out to be 0.29.

In the case of TGATGGTATGTA, the binding signal (log2 normalized fluorescence) was found to be 0.294.

With TGAGTGTGGGTA, the binding signal (log2 normalized fluorescence) was determined as 0.248.

With TGATAGTGCGTA, the binding signal (log2 normalized fluorescence) amounted to 0.231.

On to TGACCATCTGTA, for which the binding signal (log2 normalized fluorescence) was 0.326.

Take TGACCGCAAGTA: the binding signal (log2 normalized fluorescence) worked out at 0.2.

Turning to TGAAGCTTGGTA, the binding signal (log2 normalized fluorescence) turned out to be 0.0269.

As to AGAGAACGATGT, the binding signal (log2 normalized fluorescence) is 0.248.

With TGATGAGGGGTA, the binding signal (log2 normalized fluorescence) was found to be 0.348.

Regarding TGAGTTGTAGTA, the binding signal (log2 normalized fluorescence) is -0.129.

For the sequence TGAGAGATTGTA, the binding signal (log2 normalized fluorescence) was -0.173.

In the case of TGACGCTATGTA, the binding signal (log2 normalized fluorescence) stood at 0.128.

In the case of TGATCTTAGGTA, the binding signal (log2 normalized fluorescence) was -0.24.

For TGACCTACGGTA, the binding signal (log2 normalized fluorescence) was 0.193.

For the sequence TGAAGCATGGTA, the binding signal (log2 normalized fluorescence) was 0.528.

Turning to TGATTAAGCGTA, the binding signal (log2 normalized fluorescence) was -0.0845.

For TGATCCTTGGTA, the binding signal (log2 normalized fluorescence) is -0.0027.

As to TGACTATAGGTA, the binding signal (log2 normalized fluorescence) was -0.104.

Take TGATTTTCGGTA: the binding signal (log2 normalized fluorescence) was -0.043.

For the sequence TGATGCCACGTA, the binding signal (log2 normalized fluorescence) came out at 0.472.

Take TGATGGGGGGTA: the binding signal (log2 normalized fluorescence) came to 0.676.

TGACTACGCGTA: the binding signal (log2 normalized fluorescence) is 0.287.

Consider TGAACCAGCGTA, for which the binding signal (log2 normalized fluorescence) was 0.122.

Take TGACTGTAGGTA: the binding signal (log2 normalized fluorescence) amounted to 0.178.

With TGAGCAGCGGTA, the binding signal (log2 normalized fluorescence) is 0.0954.

Take TGATCTATAGTA: the binding signal (log2 normalized fluorescence) was -0.169.

For TGATGACCGGTA, the binding signal (log2 normalized fluorescence) was determined as 0.0179.

Consider TGACCAGGCGTA, for which the binding signal (log2 normalized fluorescence) amounted to 0.0707.

With TGATTATGAGTA, the binding signal (log2 normalized fluorescence) was -0.113.

As for TGACTTCAGGTA, the binding signal (log2 normalized fluorescence) is 0.148.

For TGACTTTGAGTA, the binding signal (log2 normalized fluorescence) was -0.0354.

In the case of TGAAACGGAGTA, the binding signal (log2 normalized fluorescence) is 0.0651.

Consider TGACAGGCGGTA, for which the binding signal (log2 normalized fluorescence) came out at 0.39.

For TGAACCTACGTA, the binding signal (log2 normalized fluorescence) was found to be 0.131.

On to TGACGAGTTGTA, for which the binding signal (log2 normalized fluorescence) is 0.0931.

Regarding TGAGATAATGTA, the binding signal (log2 normalized fluorescence) was -0.185.

Regarding TGACGTAGCGTA, the binding signal (log2 normalized fluorescence) was -0.162.

Consider TGATCATGGGTA, for which the binding signal (log2 normalized fluorescence) is 0.32.

With TGACGCGTGATA, the binding signal (log2 normalized fluorescence) stood at 0.675.

For the sequence TGATCGGCTGTA, the binding signal (log2 normalized fluorescence) was -0.0719.

For TGAACAATAGTA, the binding signal (log2 normalized fluorescence) is 0.0267.

TGAGAATTGGTA: the binding signal (log2 normalized fluorescence) is -0.227.

For TGATGTACTGTA, the binding signal (log2 normalized fluorescence) is 0.281.

In the case of TGAAATGGCGTA, the binding signal (log2 normalized fluorescence) was 0.153.

With TGAGAAGGCGTA, the binding signal (log2 normalized fluorescence) was -0.061.

TGACGGTTAGTA: the binding signal (log2 normalized fluorescence) was found to be 0.0339.

Consider TGAATTAAAGTA, for which the binding signal (log2 normalized fluorescence) is -0.173.

With TGAATTGCTGTA, the binding signal (log2 normalized fluorescence) was 0.163.

TGAAATTGTGTA: the binding signal (log2 normalized fluorescence) worked out at 0.0934.

For TGATGTCTAGTA, the binding signal (log2 normalized fluorescence) is 0.116.

As for TGATCAGTAGTA, the binding signal (log2 normalized fluorescence) is -0.0229.

For TGAAAATGGGTA, the binding signal (log2 normalized fluorescence) came to 0.0408.

Regarding TGACGTGTTGTA, the binding signal (log2 normalized fluorescence) came to 0.258.

For TGAGCTGTAGTA, the binding signal (log2 normalized fluorescence) was -0.029.

With TGACATCTGGCA, the binding signal (log2 normalized fluorescence) came out at 0.303.

For TGATAAGCAGTA, the binding signal (log2 normalized fluorescence) is -0.166.

Regarding TGATGTAAGGTA, the binding signal (log2 normalized fluorescence) was determined as 0.0753.

Consider TGACGCTAAGTA, for which the binding signal (log2 normalized fluorescence) came out at 0.0655.

For TGAGAAGATGTA, the binding signal (log2 normalized fluorescence) came to 0.0771.

Take TGATTTACAGTA: the binding signal (log2 normalized fluorescence) was -0.0512.

TGAGAAGTCGTA: the binding signal (log2 normalized fluorescence) was -0.086.

On to TGAGAGCGGGTA, for which the binding signal (log2 normalized fluorescence) was determined as 0.0295.

TGATCTCGCGTA: the binding signal (log2 normalized fluorescence) is 0.257.

Consider CGACACGCTGTA, for which the binding signal (log2 normalized fluorescence) is 0.538.

Turning to TCAGAAGTGGTA, the binding signal (log2 normalized fluorescence) is 0.203.

Take TGATTCTAGGTA: the binding signal (log2 normalized fluorescence) is -0.199.

Turning to TGACCGCTAGTA, the binding signal (log2 normalized fluorescence) came out at 0.067.

TGAGCTTTTGTA: the binding signal (log2 normalized fluorescence) is -0.129.

Take TGATCCTCTGTA: the binding signal (log2 normalized fluorescence) was -0.0198.

As to TGAAACTCAGTA, the binding signal (log2 normalized fluorescence) is -0.077.

Take TGATAATATGTA: the binding signal (log2 normalized fluorescence) is -0.144.

In the case of TGAACATCAGTA, the binding signal (log2 normalized fluorescence) was found to be 0.108.

Consider TGAGCCGGGGTA, for which the binding signal (log2 normalized fluorescence) is -0.155.

As to TGACCGCCCGTA, the binding signal (log2 normalized fluorescence) was 0.143.

Regarding TGAAACTACGTA, the binding signal (log2 normalized fluorescence) came out at 0.0181.

Regarding TGACTCTGCGTA, the binding signal (log2 normalized fluorescence) turned out to be 0.00745.

On to TACGTGCCGCGA, for which the binding signal (log2 normalized fluorescence) came out at 0.356.

Consider TGAAACCATGTA, for which the binding signal (log2 normalized fluorescence) stood at 0.363.

As to TGACGCCGCGTA, the binding signal (log2 normalized fluorescence) turned out to be 0.211.
